This passage reports binding signal results from PMC5700166.

Assay in all cases: protein-binding microarray (PBM)
Conditions in all cases: PBM: ~300 nM protein, 6 mM HEPES pH 7.8, 80 mM KCl, 0.5 mM EDTA, 0.5 mM EGTA, 6% glycerol, 35 ng/ul poly-dIdC, 1% milk, 1 h, room temperature; Ap Aiptasia and Nv Nematostella (sea anemones) / Co Capsaspora / Aq Amphimedon (sponge) / Dm Drosophila / Hu human; RHD is the Rel homology domain; high values mean tight binding; most listed sequences are background and not binding sites; double strand, one strand shown

For one assay, the target named is T1, GST-Ap-NF-kB RHD (UniProt A0A913YAJ5).
T1 sequence: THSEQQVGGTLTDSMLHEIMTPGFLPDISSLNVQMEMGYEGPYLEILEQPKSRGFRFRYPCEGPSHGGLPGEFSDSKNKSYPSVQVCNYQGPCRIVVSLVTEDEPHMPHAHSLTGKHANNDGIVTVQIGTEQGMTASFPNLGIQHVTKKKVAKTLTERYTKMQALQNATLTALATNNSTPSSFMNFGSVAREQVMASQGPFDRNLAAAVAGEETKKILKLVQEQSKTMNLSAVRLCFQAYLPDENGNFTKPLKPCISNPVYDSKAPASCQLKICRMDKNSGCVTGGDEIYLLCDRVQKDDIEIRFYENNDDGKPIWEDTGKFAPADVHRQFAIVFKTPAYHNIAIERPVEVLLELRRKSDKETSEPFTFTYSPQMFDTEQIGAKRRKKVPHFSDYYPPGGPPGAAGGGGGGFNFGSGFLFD

The target in assay [1] is T2, GST-Nv-NF-kB (Cys allele) (UniProt E5G601).
T2 sequence: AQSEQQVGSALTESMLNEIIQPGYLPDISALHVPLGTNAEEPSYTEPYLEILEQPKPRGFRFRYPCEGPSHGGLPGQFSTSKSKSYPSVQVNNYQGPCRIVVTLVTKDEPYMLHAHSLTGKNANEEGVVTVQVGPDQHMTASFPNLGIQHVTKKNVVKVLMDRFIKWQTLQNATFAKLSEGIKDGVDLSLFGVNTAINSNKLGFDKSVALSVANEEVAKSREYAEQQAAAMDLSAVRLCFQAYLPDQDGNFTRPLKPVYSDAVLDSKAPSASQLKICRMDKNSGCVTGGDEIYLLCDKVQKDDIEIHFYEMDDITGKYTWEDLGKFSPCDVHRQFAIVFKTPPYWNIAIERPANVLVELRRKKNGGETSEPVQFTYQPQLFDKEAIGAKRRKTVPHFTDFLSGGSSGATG

For the next assay, the target named is T3, GST-Co-NF-kB (UniProt F1ARL5).
T3 sequence: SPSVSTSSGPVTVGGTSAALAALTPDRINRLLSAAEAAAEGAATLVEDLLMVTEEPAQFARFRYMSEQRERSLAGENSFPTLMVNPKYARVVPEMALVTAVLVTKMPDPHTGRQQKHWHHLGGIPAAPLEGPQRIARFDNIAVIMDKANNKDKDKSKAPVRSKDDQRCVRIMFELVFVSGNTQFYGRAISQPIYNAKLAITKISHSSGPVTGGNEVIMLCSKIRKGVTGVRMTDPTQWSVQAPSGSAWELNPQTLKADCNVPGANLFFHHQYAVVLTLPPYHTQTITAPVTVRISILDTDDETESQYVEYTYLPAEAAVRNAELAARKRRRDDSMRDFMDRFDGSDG

For a further assay, the target named is T4, GST-Dm-Relish (UniProt Q94527).
T4 sequence: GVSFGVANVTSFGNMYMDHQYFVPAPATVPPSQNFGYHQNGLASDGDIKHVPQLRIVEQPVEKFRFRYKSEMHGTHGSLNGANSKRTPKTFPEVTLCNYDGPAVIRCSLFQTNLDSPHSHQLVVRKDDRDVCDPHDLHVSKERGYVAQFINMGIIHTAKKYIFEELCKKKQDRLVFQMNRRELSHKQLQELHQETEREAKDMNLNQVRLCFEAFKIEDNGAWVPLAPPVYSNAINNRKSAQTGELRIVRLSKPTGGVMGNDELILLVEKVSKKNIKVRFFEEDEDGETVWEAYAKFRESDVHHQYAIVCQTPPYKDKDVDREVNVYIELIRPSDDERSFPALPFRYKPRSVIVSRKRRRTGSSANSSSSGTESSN

For a further assay, the target named is T5, GST-Aq-NF-kB (UniProt A9Y5G7).
T5 sequence: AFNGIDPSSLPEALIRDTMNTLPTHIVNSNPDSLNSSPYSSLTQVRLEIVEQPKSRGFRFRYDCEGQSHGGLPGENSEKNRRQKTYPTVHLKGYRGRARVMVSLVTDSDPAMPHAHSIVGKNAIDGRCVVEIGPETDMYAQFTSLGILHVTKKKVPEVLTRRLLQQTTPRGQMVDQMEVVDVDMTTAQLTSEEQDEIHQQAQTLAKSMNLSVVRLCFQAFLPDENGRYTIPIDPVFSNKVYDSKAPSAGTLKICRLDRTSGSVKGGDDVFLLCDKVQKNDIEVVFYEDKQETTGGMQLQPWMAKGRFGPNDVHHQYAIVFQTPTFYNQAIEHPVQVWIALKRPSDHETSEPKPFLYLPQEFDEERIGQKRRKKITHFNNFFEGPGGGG

This is a selection; strong and weak results do not stand in their true shares. The list includes weakly bound sequences.

For “CCGATTAACATCAACCTTGCTACTGATGTTAATCGGGTCTTGATTCGCTTGACGCTGCTG”, the binding signal in the assay with GST-Ap-NF-kB RHD is 0.134 z-score; in assay [1] it was -0.00414 z-score; in the assay with GST-Co-NF-kB, 0.0967 z-score; with GST-Dm-Relish, -0.543 z-score; in the assay with GST-Aq-NF-kB it was -0.304 z-score.

Regarding “CCGATTAACATCAGATGCACACATGATGTTAATCGGGTCTTGATTCGCTTGACGCTGCTG”, the binding signal in the assay with GST-Ap-NF-kB RHD is -0.0677 z-score; in assay [1], -0.243 z-score; in the assay with GST-Co-NF-kB it was -0.00417 z-score; with GST-Dm-Relish, -0.236 z-score; with GST-Aq-NF-kB, -0.263 z-score.

Consider “CCGATTAACATCAGTAACTGTACTGATGTTAATCGGGTCTTGATTCGCTTGACGCTGCTG”, for which the binding signal was -1.01 z-score with GST-Ap-NF-kB RHD; -0.123 z-score in assay [1]; -0.153 z-score in the assay with GST-Co-NF-kB; 0.0464 z-score with GST-Dm-Relish; -0.339 z-score with GST-Aq-NF-kB.

As to “CCGATTAACATCATGCGATTATTTGATGTTAATCGGGTCTTGATTCGCTTGACGCTGCTG”, the binding signal with GST-Ap-NF-kB RHD was -0.279 z-score; in assay [1], 0.0904 z-score; in the assay with GST-Co-NF-kB, -0.301 z-score; with GST-Dm-Relish it was -0.036 z-score; in the assay with GST-Aq-NF-kB, -0.259 z-score.

As to “CCGATTAACATCAATATGTTTTATGATGTTAATCGGGTCTTGATTCGCTTGACGCTGCTG”, the binding signal with GST-Ap-NF-kB RHD is -0.801 z-score; in assay [1] it was -0.194 z-score; with GST-Co-NF-kB it was 0.351 z-score; with GST-Dm-Relish it was 0.452 z-score; with GST-Aq-NF-kB, -0.265 z-score.

In the case of “CCGATTAACATCACGATCATGTTTGATGTTAATCGGGTCTTGATTCGCTTGACGCTGCTG”, the binding signal with GST-Ap-NF-kB RHD is -0.639 z-score; in assay [1], -0.912 z-score; with GST-Co-NF-kB, -0.222 z-score; with GST-Dm-Relish it was -0.604 z-score; with GST-Aq-NF-kB, -0.478 z-score.

On to “CCGATTAACATCATTTGCGGTGCTGATGTTAATCGGGTCTTGATTCGCTTGACGCTGCTG”, for which the binding signal with GST-Ap-NF-kB RHD was 0.673 z-score; in assay [1] it was -0.227 z-score; with GST-Co-NF-kB, -0.0282 z-score; with GST-Dm-Relish, -0.0395 z-score; in the assay with GST-Aq-NF-kB, 0.207 z-score.

“CCGATTAACATCATACTCGCCGATGATGTTAATCGGGTCTTGATTCGCTTGACGCTGCTG”: the binding signal in the assay with GST-Ap-NF-kB RHD is -0.0692 z-score; in assay [1] it was -0.737 z-score; with GST-Co-NF-kB it was -0.0711 z-score; with GST-Dm-Relish it was -1.03 z-score; with GST-Aq-NF-kB it was -0.372 z-score.

For the sequence “CCGATTAACATCATCAATTACATTGATGTTAATCGGGTCTTGATTCGCTTGACGCTGCTG”, the binding signal was -0.993 z-score with GST-Ap-NF-kB RHD; -1.11 z-score in assay [1]; -0.572 z-score with GST-Co-NF-kB; 0.35 z-score with GST-Dm-Relish; -0.432 z-score with GST-Aq-NF-kB.

Turning to “CCGATTAACATCAGCGCAGCGGCTGATGTTAATCGGGTCTTGATTCGCTTGACGCTGCTG”, the binding signal with GST-Ap-NF-kB RHD was -0.687 z-score; in assay [1] it was 0.0571 z-score; with GST-Co-NF-kB, -1.56 z-score; in the assay with GST-Dm-Relish, -0.96 z-score; with GST-Aq-NF-kB it was -0.749 z-score.

Turning to “CCGATTAACATCACACTGAACTTTGATGTTAATCGGGTCTTGATTCGCTTGACGCTGCTG”, the binding signal is -0.00821 z-score with GST-Ap-NF-kB RHD; -0.428 z-score in assay [1]; 0.256 z-score in the assay with GST-Co-NF-kB; -0.222 z-score in the assay with GST-Dm-Relish; -0.356 z-score with GST-Aq-NF-kB.

With “CCGATTAACATCATTGGTACGTTTGATGTTAATCGGGTCTTGATTCGCTTGACGCTGCTG”, the binding signal with GST-Ap-NF-kB RHD was 0.498 z-score; in assay [1] it was -0.105 z-score; with GST-Co-NF-kB, 0.296 z-score; with GST-Dm-Relish, 0.355 z-score; in the assay with GST-Aq-NF-kB, -0.279 z-score.

Regarding “CCGATTAACATCAACACGCGCGATGATGTTAATCGGGTCTTGATTCGCTTGACGCTGCTG”, the binding signal with GST-Ap-NF-kB RHD was -0.15 z-score; in assay [1], -0.524 z-score; with GST-Co-NF-kB, -0.326 z-score; with GST-Dm-Relish, -0.366 z-score; with GST-Aq-NF-kB, -0.249 z-score.

As for “CCGATTAACATCACGGAATATCCTGATGTTAATCGGGTCTTGATTCGCTTGACGCTGCTG”, the binding signal is 0.0302 z-score with GST-Ap-NF-kB RHD; -0.38 z-score in assay [1]; 0.221 z-score with GST-Co-NF-kB; 0.154 z-score in the assay with GST-Dm-Relish; 1.48 z-score with GST-Aq-NF-kB.
